From article PMC4336329 (PLoS ONE, 2015) come the findings set out here.

The whole screen tested about 310,000 compounds, of which about 2,200 (0.71%) showed an effect of 50% or more. The effect is printed as a negative number. The list shows a part of the results.

The target of this assay is human ether-à-go-go-related gene (hERG) potassium channel (human, UniProt Q12809). The assay is described as follows: primary screen, population patch clamp on CHO cells stably expressing hERG.
Sequence of human ether-à-go-go-related gene (hERG) potassium channel (Q12809 whole entry, looked up): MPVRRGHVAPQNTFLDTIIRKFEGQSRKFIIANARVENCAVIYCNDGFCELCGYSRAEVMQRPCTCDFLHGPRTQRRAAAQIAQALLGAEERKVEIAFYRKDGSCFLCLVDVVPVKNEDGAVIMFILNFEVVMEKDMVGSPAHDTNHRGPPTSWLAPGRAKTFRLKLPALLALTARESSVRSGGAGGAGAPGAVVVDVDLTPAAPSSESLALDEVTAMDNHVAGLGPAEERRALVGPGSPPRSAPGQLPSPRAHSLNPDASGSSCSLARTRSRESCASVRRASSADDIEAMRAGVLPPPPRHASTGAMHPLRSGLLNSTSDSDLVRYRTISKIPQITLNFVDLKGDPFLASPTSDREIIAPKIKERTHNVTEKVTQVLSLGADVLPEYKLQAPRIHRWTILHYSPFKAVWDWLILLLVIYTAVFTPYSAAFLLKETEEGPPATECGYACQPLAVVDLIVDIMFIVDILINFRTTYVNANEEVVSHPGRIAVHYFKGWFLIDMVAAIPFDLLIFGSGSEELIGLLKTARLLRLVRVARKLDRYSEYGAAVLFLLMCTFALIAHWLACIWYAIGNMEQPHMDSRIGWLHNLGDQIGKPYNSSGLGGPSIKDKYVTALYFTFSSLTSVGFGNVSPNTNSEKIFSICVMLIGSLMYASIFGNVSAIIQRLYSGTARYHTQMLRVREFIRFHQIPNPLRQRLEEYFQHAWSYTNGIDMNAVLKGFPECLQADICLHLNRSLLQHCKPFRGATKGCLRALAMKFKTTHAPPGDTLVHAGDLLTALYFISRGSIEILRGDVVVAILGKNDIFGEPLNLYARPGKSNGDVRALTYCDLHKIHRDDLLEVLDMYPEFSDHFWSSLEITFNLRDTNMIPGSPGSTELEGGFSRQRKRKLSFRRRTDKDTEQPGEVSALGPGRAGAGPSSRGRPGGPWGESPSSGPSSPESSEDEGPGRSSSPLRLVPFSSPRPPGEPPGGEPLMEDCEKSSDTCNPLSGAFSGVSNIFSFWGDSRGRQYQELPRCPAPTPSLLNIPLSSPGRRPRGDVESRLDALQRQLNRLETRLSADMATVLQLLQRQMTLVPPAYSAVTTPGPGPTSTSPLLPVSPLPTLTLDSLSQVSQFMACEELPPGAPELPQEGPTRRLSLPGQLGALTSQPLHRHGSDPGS
As to `Nc1cc(=O)nc(SCc2ccccc2)n1Cc1ccco1`, the “hERG current change (%, negative = inhibition) at 1uM” value is given as -7.62%. For `O=[N+]([O-])c1cccc2ccc(/C=C/c3ccc(C(F)(F)F)cc3)nc12` the value was 1.61%. For `COc1ccccc1-c1ccc(/C=C2/C=C(C)OC2=O)o1` the value was 27.1%. Then `CCCc1cc(=O)oc2cc(C)cc(OCC(=O)NCCCN3CCOCC3)c12`, with 12.9%; and `CC1CCCC/C1=N\NC(=S)Nc1cccnc1` (centres unmarked), with 12.2%. For the molecule `O=[N+]([O-])c1ccc(S(=O)(=O)Nc2ccc(S(=O)(=O)N3CCCC3)cc2)cc1`, the “hERG current change (%, negative = inhibition) at 1uM” value came out at 7.82%.

Take `Cc1c(C(=O)Nc2cccc(Cl)c2)cn2c(nc3ccccc32)c1C#N`: the “hERG current change (%, negative = inhibition) at 1uM” value worked out at 11.5%. For `Clc1ccc(C(c2ccc(Cl)cc2)n2cc[n+](CC(OCc3ccc(Cl)cc3Cl)c3ccc(Cl)cc3Cl)c2)cc1.[Cl-]` (centres unmarked) the value was -6.49%. For `CC(=O)NC(CC(=O)NCCCn1ccc2ccccc21)c1ccccc1` (centres unmarked) the value was 19.8%; for `CCOC(=O)C1CCN(CCC(=O)Nc2ccc(C)cc2)CC1`, 1.98%; for `N/C(=N\OC(=O)c1cccs1)C1(c2ccc(Cl)cc2Cl)CC1`, 12.8%. Then `Cc1ccc(S(=O)(=O)c2c(C)cc(C)nc2Cl)c(C)c1`, with -1.51%; and `Cc1c(S(=O)(=O)N2CCN(c3ccccc3)CC2)c(=O)n(C)c(=O)n1C`, with 7.26%. Take `Cc1cc(C(=O)NC2CC(C)(C)Cc3c2cnn3-c2ccccc2C)c(C)o1` (centres unmarked): the “hERG current change (%, negative = inhibition) at 1uM” value turned out to be 4.68%.

For the molecule `COc1ccccc1-n1ccnc(SCC(=O)NCc2ccccc2Cl)c1=O`, the “hERG current change (%, negative = inhibition) at 1uM” value came out at 14.6%.

Regarding `COc1cc(/C=N/NC(=O)c2ccc(-c3ccccc3)cc2)cc(OC)c1OC`, the “hERG current change (%, negative = inhibition) at 1uM” value is recorded as -0.437%. For `COc1ccc(NC(=O)CSc2nnc(NC(=O)C3CC3)s2)cc1OC` the value was 1.97%. Then `Cc1cccc(C(=O)NCC(=O)OCC(=O)N2CCN(S(=O)(=O)c3ccc(C)cc3C)CC2)c1`, with -12.4%; and `CCCC(=O)Nc1ccc(NC(=O)c2cccc(OC)c2)nc1`, with 3.64%; and `CS(=O)(=O)N(CC(=O)NCC1CCCO1)c1ccc(F)c(Cl)c1` (centres unmarked), with -5.4%.

Take `CNC(=S)N1CCC(NC(=O)C(Cc2ccccc2)NC(C)=O)CC1` (centres unmarked): the “hERG current change (%, negative = inhibition) at 1uM” value came out at 5.77%. Then `O=C(Nc1nnc(SCc2ccc(Cl)cc2)s1)C1CC(=O)N(Cc2ccccc2)C1` (centres unmarked), with 17%. For `C=CCNc1nc(N)c([N+](=O)[O-])c(N2CCCCCC2)n1` the value was 0.263%; for `N#Cc1ccccc1OCC(=O)Nc1c(C(=O)C2CC2)oc2ccccc12`, 8.85%.

In the case of `CC(C)NC(=O)c1ccc(-c2ccccc2C(F)(F)F)o1`, the “hERG current change (%, negative = inhibition) at 1uM” value worked out at 1.66%. Consider `COCc1cc(Sc2c(Cl)cccc2Cl)nc(-c2ccccc2)n1`, for which the “hERG current change (%, negative = inhibition) at 1uM” value was 14.8%.

For the molecule `Cc1cc(NC(=O)CCC(=O)N(CC(=O)NCC2CCCO2)Cc2ccc(F)cc2)no1` (centres unmarked), the “hERG current change (%, negative = inhibition) at 1uM” value came out at 6.02%.

As for `CC(=O)c1ccc(NC(=O)c2cnsn2)cc1`, the “hERG current change (%, negative = inhibition) at 1uM” value came out at 6.31%. Then `COCCn1c(Cc2ccccc2)nnc1SCC(=O)NC(C)(C)C`, with 15.5%; and `O=C(Cc1ccccc1)Nc1nc2ccccc2[nH]1`, with 8.46%. For `CN(C)CCOC(C)(c1ccccc1)c1ccccn1.O=C(O)CCC(=O)O` (centres unmarked) the value was 10.5%; for `O=S(=O)(N/N=C\c1cccnc1)c1ccccc1`, 11.6%.

Regarding `Cc1ccc(SCCNC(=O)c2ccccc2F)cc1`, the “hERG current change (%, negative = inhibition) at 1uM” value is given as 11%. For `O=[N+]([O-])c1cccc2c(N3CCCC3)ccnc12` the value was -84.4%; for `CCOC(=O)c1ccc(-n2c(C)nc3c(cnn3-c3ccccc3Cl)c2=O)cc1`, 5.79%; for `COc1cc(NS(=O)(=O)c2ccc(NC(=S)NC(=O)/C=C/c3ccc(F)cc3)cc2)ncn1`, 3.23%. Then `CCOC(=O)CSc1n[nH]c(NC(=O)c2cccc(C)c2)n1`, with -2.38%; and `Cc1cc(N2CCN(C)CC2)nc2ccc(NC(=S)N3CCC4(CC3)OCCO4)cc12`, with -0.018%. In the case of `O=C1OC(=O)c2cc([N+](=O)[O-])ccc21`, the “hERG current change (%, negative = inhibition) at 1uM” value is 17.8%. For `COc1ccc(CCNC(=O)c2c(C)nn(CC(C)C)c2Cl)cc1OC` the value was 4.57%; for `COc1ccc(C/C(C)=N/NC(=O)c2ccc(C)cc2C)cc1`, 4.76%. Then `O=C(Nc1ccccc1N1CCOCC1)c1ccccc1[N+](=O)[O-]`, with 4.36%. For `O=C(NCCCNC(=O)c1ccc(-c2cccc(Cl)c2)o1)c1cnccn1` the value was -12.5%.

As for `CCOC(=O)CC(=O)CSc1nc2c(sc(=S)n2-c2ccccc2)c(=O)[nH]1`, the “hERG current change (%, negative = inhibition) at 1uM” value is reported as 8.72%. Regarding `CC(=O)N1CCN=C1SCc1ccccc1F`, the “hERG current change (%, negative = inhibition) at 1uM” value is recorded as 14%.

With `CC(C)(C)c1cc(NC(=O)c2ccco2)n(-c2ccccc2)n1`, the “hERG current change (%, negative = inhibition) at 1uM” value is reported as 11.4%.

`Cc1c(Cl)cccc1NC(=O)CCC(=O)NNC(=O)c1ccco1`: the “hERG current change (%, negative = inhibition) at 1uM” value was determined as 18.6%. As to `Cc1nn(-c2ccccc2)c(C)c1NC(=O)COC(=O)c1ccc(NC(=O)CC#N)cc1`, the “hERG current change (%, negative = inhibition) at 1uM” value came out at 14.2%. For `C=CCc1cccc(CNc2nc3ccccc3n2CCC)c1O` the value was 12.6%.

For the molecule `COc1ccc(CCNS(=O)(=O)CCNC(=O)c2ccc(OC)cc2)cc1`, the “hERG current change (%, negative = inhibition) at 1uM” value was -0.204%.

As to `COC(=O)c1ccc2c(=O)n(Cc3ccco3)c(SCC(=O)Nc3ccc(C)c(Cl)c3)nc2c1`, the “hERG current change (%, negative = inhibition) at 1uM” value is listed as 13.4%. Then `COc1ccc(CCNC(=O)C(=O)NCC2CCCN2S(=O)(=O)c2ccc(OC)cc2)cc1` (centres unmarked), with 3.79%; and `Cc1cccc(NS(=O)(=O)c2ccc(Oc3ccccc3)cc2)n1`, with -4.48%.

`COc1ccc(CNC(=O)CCS(=O)(=O)Cc2cccc(Cl)c2)c(OC)c1`: the “hERG current change (%, negative = inhibition) at 1uM” value stood at 17.9%.

Turning to `COc1ccc(OCC(=O)NC(=S)NNC(=O)COc2ccc(Br)cc2Cl)cc1`, the “hERG current change (%, negative = inhibition) at 1uM” value is given as 15.7%. With `O=C(NCCCO)c1cc2c(cn1)[nH]c1ccccc12`, the “hERG current change (%, negative = inhibition) at 1uM” value is listed as 9.16%.
